{"source": "the RNAGym collection of RNA variant scans (doi:10.7554/elife.90254)", "parents": {"B1": {"name": "LINE1-mini (parent)", "chain": "GGCAGAGCUCAACACAGCGUGGCAAAGUGGCUGUGGCUAGACUGCC"}}, "note": "The source gives no read counts; variants with many changes may rest on few reads."}
{"variants_of": "B1", "experiment": "self-cleavage, relative activity (ratio to wild type); higher = more cleavage; in vitro, sequencing; the parent is a self-cleaving ribozyme"}
{"variant": "GGCAGAGCACAACACAGCGUGGCAAAGUGGUUGUGGCUUGACUGCC", "note": "[U9A C31U A39U]", "self-cleavage": 0.03}
{"variant": "GGCAGAGCUCAACACAGCGUCGCUAAGUCGCUGUGGCUCGACUGCC", "note": "[G21C A24U G29C A39C]", "self-cleavage": 0.02}
{"variant": "GGCAGAGCUCAACACAGUGUGGCAAAGUUGCUCUGGCUAAACUGCC", "note": "[C18U G29U G33C G40A]", "self-cleavage": 0.01}
{"variant": "GGCAGAACUCAACACAGGGUGGUAAAGUUGCUGUUACUAGACUGCC", "note": "[G7A C18G C23U G29U G35U G36A]", "self-cleavage": 0.07}
{"variant": "GGCAGCGCUCUAAACAGCGUGGCAAAGUGGCUGUGGCUAGACUGCC", "note": "[A6C A11U C13A]", "self-cleavage": 0.03}
{"variant": "GGCUGAGCUCGACACAGCGUGGCAAAGUGGUUGUGGGUAGACUGCC", "note": "[A4U A11G C31U C37G]", "self-cleavage": 0.01}
{"variant": "GUCAAAGCUCAACACAGUGUGGACAAGUGGCUGUGGCUGGACUGCC", "note": "[G2U G5A C18U C23A A24C A39G]", "self-cleavage": 0.02}
{"variant": "GGCCGAGCUCAACACAGCGUGGCAAAGUGGCUGUGGCGCGACUGCC", "note": "[A4C U38G A39C]", "self-cleavage": 0.86}
{"variant": "GGAAGAGCUCGACACAGCGUAGCAAAGUGGCGGUGGCUAGACUGCC", "note": "[C3A A11G G21A U32G]", "self-cleavage": 0.04}
{"variant": "GGCAGAGGUCAACACAGCGUGGCAAAGUGGCAGUGGCGAGACUGCC", "note": "[C8G U32A U38G]", "self-cleavage": 0.02}
{"variant": "UGCAGAGCUCAACACAGCGUGGCAAAGUGGCUGUGGCUGAACUGCC", "note": "[G1U A39G G40A]", "self-cleavage": 0.01}
{"variant": "GCCGGAGCUCGACACAGCGUGGCAAAGUGGCUGUGGCUAGACUGCC", "note": "[G2C A4G A11G]", "self-cleavage": 0.01}
{"variant": "GGCAGAGCUCACCACAGCGUGCCAAGGUGGCUGUGGCUAGACUGCC", "note": "[A12C G22C A26G]", "self-cleavage": 0.05}
{"variant": "GGCAGAGCUCAACACAGCGUGGCAACCUGGCUGUGGCUAGAAUGCC", "note": "[A26C G27C C42A]", "self-cleavage": 0.21}
{"variant": "GCUAGAGCUAAACAGAGCGUGGCAAAGUGGCUGUGCCUAGACUGCC", "note": "[G2C C3U C10A C15G G36C]", "self-cleavage": 0.07}
{"variant": "GGAAGAGCUAAACACAGCGUGGGAAAGUGGCUGUGGCUAGACUGCC", "note": "[C3A C10A C23G]", "self-cleavage": 0.04}
{"variant": "GGCAGAGCUCAACGCAGCGUCGCAAAGUGGCUGUGGCUAUGCUGCC", "note": "[A14G G21C G40U A41G]", "self-cleavage": 0.02}
{"variant": "GGCAGAGCUCAACUCAGCGUGGCAAAGUGGCUAUUGCUACACUGUC", "note": "[A14U G33A G35U G40C C45U]", "self-cleavage": 0.04}
{"variant": "GGCAGAGCUCAGCACAGCGUAGCAAAGUGACUGUGGCUAGACUGCC", "note": "[A12G G21A G30A]", "self-cleavage": 0.02}
{"variant": "GGCAGAGCUCCACACAGUGUGGCAAAGUGGCUGUGGCUAUACUGCC", "note": "[A11C C18U G40U]", "self-cleavage": 0.03}
{"variant": "GGCAGAGCUCAAGACAGCGUGGCAAAGUCGUUGUGGCGUGACUGAC", "note": "[C13G G29C C31U U38G A39U C45A]", "self-cleavage": 0.03}
{"variant": "GGCAGUGUUCAGAACAGCGUGGCAAAGUGGGUGUGGCUAGACUGCC", "note": "[A6U C8U A12G C13A C31G]", "self-cleavage": 0.49}
{"variant": "GGCAGAGCUCAACACAGAGUGGCAAAGUGGCUGUGGCAAGUCUGCC", "note": "[C18A U38A A41U]", "self-cleavage": 0.09}
{"variant": "GGCAUGGCUCAACACAGCGUGGCAAUGUGGCUGUGGCUAGACUGCC", "note": "[G5U A6G A26U]", "self-cleavage": 0.05}
{"variant": "GGCAAAGCUCAACACUGCGUGGCAAAGUAGCUGUGGCUAGGCCGCC", "note": "[G5A A16U G29A A41G U43C]", "self-cleavage": 0.02}
{"variant": "AGCAGAGCUCAACAUAGCGUAGCAAAGUGGCUGUGGUUAGAAUGCC", "note": "[G1A C15U G21A C37U C42A]", "self-cleavage": 0.06}
{"variant": "GUCAGAGCUCAACACAGCGUGGCAAAGCUGCUGUGGCUAGACUGCC", "note": "[G2U U28C G29U]", "self-cleavage": 0.09}
{"variant": "GACAGAGCUCAACACAGCGUGGCAACGUGGCUGUGGCUAUACUCCC", "note": "[G2A A26C G40U G44C]", "self-cleavage": 0.01}
{"variant": "GGAAGAGUUCAACACAGCGUGGCAAAGUGGCUGUGGCUAACCUGCC", "note": "[C3A C8U G40A A41C]", "self-cleavage": 0.06}
{"variant": "GGCAGAACUCAACUCAGCGUGGCACAGUGGUUGUAGCUAGACUGCC", "note": "[G7A A14U A25C C31U G35A]", "self-cleavage": 0.19}
{"variant": "GGCAGAGCUCAACUUAGCGUGGCAAAGUGGCUGUGGCGAGACUGCC", "note": "[A14U C15U U38G]", "self-cleavage": 0.04}
{"variant": "GGCAGGGCUCAACACAGCGUGGGAAACUGGCUGUGGCUUGACUGCC", "note": "[A6G C23G G27C A39U]", "self-cleavage": 0.01}
{"variant": "GGAAGAGCUCAACACAGCGUGGCAAACUGGUCGUGGCUAGACUGCC", "note": "[C3A G27C C31U U32C]", "self-cleavage": 0.32}
{"variant": "GGCAGAGCUCAACACAGCGUGGCAAAGUGACCGUGGCUAGAUCGCC", "note": "[G30A U32C C42U U43C]", "self-cleavage": 0.39}
{"variant": "GGCAGAGCUCAACACAGCGCGGCAAAGAGGCUGGAGCAAGAAUGCC", "note": "[U20C U28A U34G G35A U38A C42A]", "self-cleavage": 0.01}
{"variant": "GGCAGAGAUCAACACAGCGUGGCAAAGUGGGUGUGGCUAGACUGCA", "note": "[C8A C31G C46A]", "self-cleavage": 0.13}
{"variant": "GGCAGAGCUCAACAGAGCGUGGCAAAGUGGCUGUGGCUUGAGUGCC", "note": "[C15G A39U C42G]", "self-cleavage": 0.02}
{"variant": "GGCAGAGCUCAACACAGCGUGACAAAGUACCUGUGGUUAGACUGCC", "note": "[G22A G29A G30C C37U]", "self-cleavage": 0.04}
{"variant": "GGCAGAGCUCAACACAGCAUGGCAAAGUGGCUUUGGUUAGACUGCC", "note": "[G19A G33U C37U]", "self-cleavage": 0.08}
{"variant": "GGCAGAGCUCAAUACAGCGUGGCAAAGUGGCUGUGGGUAGACUUCC", "note": "[C13U C37G G44U]", "self-cleavage": 0.06}
{"variant": "GGCAGAGCUCAACACAGCGUGUCAAAAUAGCUGUGGCUAGACUGCC", "note": "[G22U G27A G29A]", "self-cleavage": 1.16}
{"variant": "GGCGGAGCUCAGCACAGCGUAGCAAAGUGGCGGUGGCGAGACUGCC", "note": "[A4G A12G G21A U32G U38G]", "self-cleavage": 0.08}
{"variant": "GGCAGAGCUCUACACAGCGUGGCACAGCGGCUGUGGCUAGACUGCC", "note": "[A11U A25C U28C]", "self-cleavage": 0.03}
{"variant": "GGCAGAUCUCAACACAGCUUGCCAAAGUGGCUGUGGCUAGACUGCC", "note": "[G7U G19U G22C]", "self-cleavage": 0.03}
{"variant": "GACACAGCUCAACACAGCGUGUCAAAGUGGCUGUGGCUUGACCGCC", "note": "[G2A G5C G22U A39U U43C]", "self-cleavage": 0.02}
{"variant": "GGCAGAGCUCAACACAGCGUAGCAAAGUGGCGGUGGGAAGACUGCC", "note": "[G21A U32G C37G U38A]", "self-cleavage": 0.04}
{"variant": "GGCAGCGCUGAACUCAGCGUGGCAAAGUGGCUGAGGCUAGACUGCC", "note": "[A6C C10G A14U U34A]", "self-cleavage": 0.02}
{"variant": "UGCAGAGCUCAAUACAGCGUGGCAAAGUGGCUGUGGAUAGACUGCC", "note": "[G1U C13U C37A]", "self-cleavage": 0}
{"variant": "GGCAGAGCUACACACAGCGUGGUUAAGUGGCUGUGGCUAGACUGCC", "note": "[C10A A11C C23U A24U]", "self-cleavage": 0.01}
{"variant": "GGCUGAACACAACACAGCGUGGCAAAGGGGCUGUGGCUAGACUGCC", "note": "[A4U G7A U9A U28G]", "self-cleavage": 0.03}
{"variant": "GGCUGACCUCAACACAGCGUGGCAAAGUGGAUGUCGCUAGACUUCG", "note": "[A4U G7C C31A G35C G44U C46G]", "self-cleavage": 0.01}
{"variant": "GGUAGAGCUCAACACAGCGUGGCAAAGUAGCUGUUGCUAGACUGCC", "note": "[C3U G29A G35U]", "self-cleavage": 0.16}
{"variant": "GGCAGUGGUCAACACAGCGUGGCAAAGUGGCUGUGGCUAGACUGUC", "note": "[A6U C8G C45U]", "self-cleavage": 0.14}
{"variant": "GGCAGAGCUCAACACAGCUUGGCAAAGUAGCUGUGGUUAGACUUCC", "note": "[G19U G29A C37U G44U]", "self-cleavage": 0.02}
{"variant": "GGCAGAGCUCAACAUUGCGUGGCAAAGUGGCUAUGGCUAGACUGCC", "note": "[C15U A16U G33A]", "self-cleavage": 0.02}
{"variant": "GGCAGGGCUCAACACAAAGUGGCAAAGUGGCUGUGGCUAGACUCCC", "note": "[A6G G17A C18A G44C]", "self-cleavage": 0}
